Data on 110 sequences can be found in PMC6212790.

Some of the results follow. At the low end of the ranking the order means little.

The target in this test is T1, GST-Rok (full length) (UniProt O34857).
T1 sequence: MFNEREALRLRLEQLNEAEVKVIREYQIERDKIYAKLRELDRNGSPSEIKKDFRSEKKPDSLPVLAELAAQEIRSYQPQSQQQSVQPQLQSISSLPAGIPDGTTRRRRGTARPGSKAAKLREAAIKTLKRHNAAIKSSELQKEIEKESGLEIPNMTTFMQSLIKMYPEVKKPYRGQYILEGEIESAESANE
The experiment in a line: protein binding microarray.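 Note: rank score from −0.5 (least bound) to 0.5 (best bound).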 The conditions noted are these: Rok is a gene silencer of Bacillus subtilis; high values mean tight binding; most listed sequences are background and not binding sites; double strand, one strand shown.
With AAGTCGTG, the binding signal is 0.127 E-score. For the sequence CTCAAGGA, the binding signal was -0.255 E-score. Take CACTCGAC: the binding signal is -0.155 E-score. As for ATAGCTTC, the binding signal is 0.0542 E-score. With CTTCCATC the figure was -0.273 E-score; with GAAGAAAC, 0.056 E-score; with GCGGAGCA, -0.168 E-score. Sequence GAAGGATA yielded a binding signal of 0.0273 E-score. In turn, CCCCCCAG returned a binding signal of -0.384 E-score. Sequence GGGTTGAA came in with a binding signal of -0.293 E-score.

For the sequence GCCTGACA, the binding signal was -0.242 E-score. With CCTCGTCC the figure was -0.342 E-score; with GTAATCCA, 0.00713 E-score; with CTATCGGC, 0.0463 E-score. For GACCCTCA the value was -0.349 E-score; for GAGTCAAC, -0.133 E-score.

In the case of ACATATTG, the binding signal was determined as 0.148 E-score. In turn, GCTATACC returned a binding signal of -0.0167 E-score. The sequence AGCGCCCA yielded a binding signal of -0.282 E-score.

CTGATCAG gave a binding signal of 0.138 E-score. On to AGACGCCT, for which the binding signal was -0.229 E-score. Consider CGCAACAC, for which the binding signal was -0.0368 E-score.

With AGGTTCAG, the binding signal is 0.0108 E-score.

Sequence ACGCTCTC came in with a binding signal of -0.384 E-score. ACGATACG yielded a binding signal of 0.122 E-score. Sequence TACCGCCA gave a binding signal of 0.0353 E-score. On to CCGATATA, for which the binding signal came out at 0.297 E-score. With ACCATGAG the figure was 0.0279 E-score. For AACCAGCT the value was -0.112 E-score. TGAGCAAA displayed a binding signal of 0.0435 E-score. GGCTGCCC gave a binding signal of -0.342 E-score.

On to ATGGAGAG, for which the binding signal was -0.197 E-score. AGATTCCT registered a binding signal of 0.106 E-score. CGTACCTC: the binding signal is -0.098 E-score. The sequence ACATGGCT gave a binding signal of 0.0198 E-score. CGTGCAAA showed a binding signal of -0.0205 E-score. GTTATGGA came in with a binding signal of 0.064 E-score. Sequence CTGGCCGA yielded a binding signal of -0.153 E-score. As for GCCGCGGA, the binding signal is -0.0998 E-score.

Take ATTTTTTC: the binding signal is -0.0958 E-score. For CACGAATC the value was 0.0942 E-score; for GGCACGGA, -0.161 E-score; for GAAGATTA, 0.224 E-score. AATATTTC: the binding signal stood at 0.182 E-score.

In turn, ATTCCTTG came in with a binding signal of -0.0405 E-score. The sequence ACCGGGCC had a binding signal of -0.325 E-score. For CAGCCTCC the value was -0.379 E-score; for GGAAGGCC, -0.457 E-score; for CTTAATGC, 0.13 E-score.

Sequence CGGGAAGA registered a binding signal of -0.189 E-score. AAGATCGG returned a binding signal of -0.128 E-score. For ATACTAGC, the binding signal was found to be 0.321 E-score. For GTGCGAAC, the binding signal was -0.149 E-score.

As for CATTTGCG, the binding signal was -0.059 E-score. Sequence AAGACAGT gave a binding signal of -0.0316 E-score. In the case of GAGTTACA, the binding signal stood at 0.173 E-score.

In the case of GTCTCACA, the binding signal is -0.154 E-score. With GCCTCTTA, the binding signal is -0.27 E-score. With ACCCCTGC the figure was -0.316 E-score; with TCCCAAGA, -0.247 E-score. With CCTAGGCG the figure was -0.33 E-score; with CTAATGCA, 0.196 E-score; with GCGCGTCC, -0.156 E-score. In turn, ATGTCACG had a binding signal of -0.0246 E-score.

As for CGTGCCTC, the binding signal is -0.277 E-score. Sequence AAGAGGGC showed a binding signal of -0.232 E-score.

Take ATCTCCAT: the binding signal came to 0.247 E-score. For TAAAATAA the value was 0.247 E-score; for GCGGACAC, -0.157 E-score; for GTTGCCTA, 0.156 E-score. Regarding CGCCCAGC, the binding signal was -0.373 E-score. CATTTAGC returned a binding signal of 0.0858 E-score. With TGGAGACA the figure was -0.258 E-score; with CAAACTCC, -0.0836 E-score; with GCTGCACA, 0.105 E-score. Regarding AGGTTCGA, the binding signal was -0.0964 E-score. AATGTGAA had a binding signal of 0.22 E-score. With AGAAGTTA the figure was 0.277 E-score. For GATGATGC the value was -0.101 E-score. Take CCCAAAAG: the binding signal was -0.247 E-score. ACAACCCT had a binding signal of -0.042 E-score. ACCCGGCG displayed a binding signal of -0.317 E-score. Consider AAACCGCT, for which the binding signal was -0.108 E-score. Regarding ATACGTAT, the binding signal is 0.292 E-score. The sequence CAGATTCA showed a binding signal of 0.0471 E-score. With CCTAACAA, the binding signal amounted to 0.191 E-score. ATTAACCA registered a binding signal of 0.0869 E-score. As for GATTCCAA, the binding signal worked out at 0.0401 E-score. On to AGGGTGCC, for which the binding signal was -0.261 E-score. TCTGCTAA had a binding signal of 0.0588 E-score. The sequence ACCTTCAT had a binding signal of -0.127 E-score. For AATGCGGG the value was -0.104 E-score. For CGACCAGC the value was -0.24 E-score; for CTGTCACC, -0.289 E-score; for ACCTACCT, 0.271 E-score.

Consider ACGGGCAA, for which the binding signal was -0.222 E-score.

GCGTACCC gave a binding signal of -0.00127 E-score.

On to GGGAAATA, for which the binding signal worked out at 0.127 E-score. Turning to CTCAGGAC, the binding signal is -0.308 E-score. Take CGCCGGGA: the binding signal was -0.379 E-score.

Consider ATCGAAGC, for which the binding signal was determined as 0.0534 E-score.

Consider CGCAGCAA, for which the binding signal is -0.218 E-score. ACGGCCCC: the binding signal is -0.269 E-score. ATACGGGG had a binding signal of -0.0292 E-score.

Regarding CGTACACC, the binding signal amounted to 0.0304 E-score.

With CCCAGATA, the binding signal turned out to be 0.0453 E-score.

As for AGTCTTCC, the binding signal was -0.028 E-score. CTAGAGGC displayed a binding signal of -0.244 E-score.

As to GATATAGC, the binding signal was found to be 0.0453 E-score. With GCACGTTA the figure was 0.108 E-score.
